Reference: PMC12820563
This is one part of the list. The list includes weakly bound sequences.

Target: T1, MBP-FoxP3dN (UniProt Q99JB6)
T1 sequence: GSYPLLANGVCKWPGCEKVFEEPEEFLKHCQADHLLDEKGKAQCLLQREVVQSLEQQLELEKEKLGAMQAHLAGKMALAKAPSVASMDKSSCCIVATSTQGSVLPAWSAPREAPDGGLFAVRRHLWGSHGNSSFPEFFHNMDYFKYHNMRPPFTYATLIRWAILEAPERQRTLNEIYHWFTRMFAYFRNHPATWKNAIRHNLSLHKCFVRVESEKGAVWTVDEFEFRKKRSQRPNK
Experiment: PD-seq (MBP pull-down with sequencing)
Details: 20 mM Tris-HCl pH 7.5, 100 mM NaCl, 1.5 mM MgCl2, 0.4 uM protein, 0.1 uM dsDNA library, 30 min, room temperature, amylose pull-down; high values mean tight binding; double strand, one strand shown

Q: With “GATGATTGTTCTCCCAGCTGATGAATTCTAAGCATCGAGTAAACAAATTTTCCTAATCTTTCTGTTCAAGCGCCATCTAC” as the sequence, how does the binding signal (RPM ratio (pull-down/input)) read?
A: Its binding signal (RPM ratio (pull-down/input)) is 0.758.

Q: With “GATGATTGTTCTCCCAGCTGATGAATTGCTTTCTTCGAGTAAACAAATTTTCCTAATCTTTCTGTTCAAGCGCCATCTAC” as the sequence, how does the binding signal (RPM ratio (pull-down/input)) read?
A: The binding signal (RPM ratio (pull-down/input)) was 1.22.

Q: For “GATGATTGTTCTCCCAGCTGATGAATTGGTCGACTCGAGTAAACAAATTTTCCTAATCTTTCTGTTCAAGCGCCATCTAC”, which binding signal (RPM ratio (pull-down/input)) is on record?
A: The binding signal (RPM ratio (pull-down/input)) was 0.342.

Q: How did the binding signal (RPM ratio (pull-down/input)) turn out when “GATGATTGTTCTCCCAGCTGATGAATTACCGTGCTCGAGTAAACAAATTTTCCTAATCTTTCTGTTCAAGCGCCATCTAC” was run?
A: Its binding signal (RPM ratio (pull-down/input)) is 0.434.

Q: How did the binding signal (RPM ratio (pull-down/input)) turn out when “GATGATTGTTCTCCCAGCTGATGAATTCGTACTTTCGAGTAAACAAATTTTCCTAATCTTTCTGTTCAAGCGCCATCTAC” was run?
A: Its binding signal (RPM ratio (pull-down/input)) is 0.425.

Q: How did the binding signal (RPM ratio (pull-down/input)) turn out when “GATGATTGTTCTCCCAGCTGATGAATTGGTCGGATCGAGTAAACAAATTTTCCTAATCTTTCTGTTCAAGCGCCATCTAC” was run?
A: Its binding signal (RPM ratio (pull-down/input)) is 0.251.

Q: “GATGATTGTTCTCCCAGCTGATGAATTGGCTAAGTCGAGTAAACAAATTTTCCTAATCTTTCTGTTCAAGCGCCATCTAC” was tested. Which binding signal (RPM ratio (pull-down/input)) did it give?
A: The binding signal (RPM ratio (pull-down/input)) was 0.226.

Q: Which binding signal (RPM ratio (pull-down/input)) does the source give for “GATGATTGTTCTCCCAGCTGATGAATTAAGTTAATCGAGTAAACAAATTTTCCTAATCTTTCTGTTCAAGCGCCATCTAC” here?
A: The binding signal (RPM ratio (pull-down/input)) was 0.454.

Q: Which binding signal (RPM ratio (pull-down/input)) does the source give for “GATGATTGTTCTCCCAGCTGATGAATTAATGTGCTCGAGTAAACAAATTTTCCTAATCTTTCTGTTCAAGCGCCATCTAC” here?
A: Its binding signal (RPM ratio (pull-down/input)) is 1.13.

Q: Which binding signal (RPM ratio (pull-down/input)) does the source give for “GATGATTGTTCTCCCAGCTGATGAATTGTGTTCCTCGAGTAAACAAATTTTCCTAATCTTTCTGTTCAAGCGCCATCTAC” here?
A: Its binding signal (RPM ratio (pull-down/input)) is 2.61.

Q: Which binding signal (RPM ratio (pull-down/input)) does the source give for “GATGATTGTTCTCCCAGCTGATGAATTAAGTATTTCGAGTAAACAAATTTTCCTAATCTTTCTGTTCAAGCGCCATCTAC” here?
A: The binding signal (RPM ratio (pull-down/input)) was 2.99.

Q: Which binding signal (RPM ratio (pull-down/input)) does the source give for “GATGATTGTTCTCCCAGCTGATGAATTCAGCTTATCGAGTAAACAAATTTTCCTAATCTTTCTGTTCAAGCGCCATCTAC” here?
A: Its binding signal (RPM ratio (pull-down/input)) is 1.68.

Q: “GATGATTGTTCTCCCAGCTGATGAATTTTACGACTCGAGTAAACAAATTTTCCTAATCTTTCTGTTCAAGCGCCATCTAC” was tested. Which binding signal (RPM ratio (pull-down/input)) did it give?
A: The binding signal (RPM ratio (pull-down/input)) was 0.307.

Q: For “GATGATTGTTCTCCCAGCTGATGAATTACATTGTTCGAGTAAACAAATTTTCCTAATCTTTCTGTTCAAGCGCCATCTAC”, which binding signal (RPM ratio (pull-down/input)) is on record?
A: Its binding signal (RPM ratio (pull-down/input)) is 1.45.

Q: For “GATGATTGTTCTCCCAGCTGATGAATTCTCGCGGTCGAGTAAACAAATTTTCCTAATCTTTCTGTTCAAGCGCCATCTAC”, which binding signal (RPM ratio (pull-down/input)) is on record?
A: Its binding signal (RPM ratio (pull-down/input)) is 0.272.

Q: “GATGATTGTTCTCCCAGCTGATGAATTACGCCTTTCGAGTAAACAAATTTTCCTAATCTTTCTGTTCAAGCGCCATCTAC” was tested. Which binding signal (RPM ratio (pull-down/input)) did it give?
A: Its binding signal (RPM ratio (pull-down/input)) is 5.25.

Q: Which binding signal (RPM ratio (pull-down/input)) does the source give for “GATGATTGTTCTCCCAGCTGATGAATTGCGTGCATCGAGTAAACAAATTTTCCTAATCTTTCTGTTCAAGCGCCATCTAC” here?
A: Its binding signal (RPM ratio (pull-down/input)) is 2.82.

Q: For “GATGATTGTTCTCCCAGCTGATGAATTTCGCAGGTCGAGTAAACAAATTTTCCTAATCTTTCTGTTCAAGCGCCATCTAC”, which binding signal (RPM ratio (pull-down/input)) is on record?
A: Its binding signal (RPM ratio (pull-down/input)) is 0.853.

Q: For “GATGATTGTTCTCCCAGCTGATGAATTGCGATATTCGAGTAAACAAATTTTCCTAATCTTTCTGTTCAAGCGCCATCTAC”, which binding signal (RPM ratio (pull-down/input)) is on record?
A: The binding signal (RPM ratio (pull-down/input)) was 1.7.

Q: For “GATGATTGTTCTCCCAGCTGATGAATTACCCTTTTCGAGTAAACAAATTTTCCTAATCTTTCTGTTCAAGCGCCATCTAC”, which binding signal (RPM ratio (pull-down/input)) is on record?
A: Its binding signal (RPM ratio (pull-down/input)) is 0.278.

Q: “GATGATTGTTCTCCCAGCTGATGAATTGACTGAATCGAGTAAACAAATTTTCCTAATCTTTCTGTTCAAGCGCCATCTAC” was tested. Which binding signal (RPM ratio (pull-down/input)) did it give?
A: The binding signal (RPM ratio (pull-down/input)) was 0.24.

Q: For “GATGATTGTTCTCCCAGCTGATGAATTAAAGGACTCGAGTAAACAAATTTTCCTAATCTTTCTGTTCAAGCGCCATCTAC”, which binding signal (RPM ratio (pull-down/input)) is on record?
A: The binding signal (RPM ratio (pull-down/input)) was 0.262.

Q: Which binding signal (RPM ratio (pull-down/input)) does the source give for “GATGATTGTTCTCCCAGCTGATGAATTCCCAACTTCGAGTAAACAAATTTTCCTAATCTTTCTGTTCAAGCGCCATCTAC” here?
A: Its binding signal (RPM ratio (pull-down/input)) is 0.279.

Q: With “GATGATTGTTCTCCCAGCTGATGAATTTGTAAGTTCGAGTAAACAAATTTTCCTAATCTTTCTGTTCAAGCGCCATCTAC” as the sequence, how does the binding signal (RPM ratio (pull-down/input)) read?
A: Its binding signal (RPM ratio (pull-down/input)) is 2.97.

Q: How did the binding signal (RPM ratio (pull-down/input)) turn out when “GATGATTGTTCTCCCAGCTGATGAATTAGATACCTCGAGTAAACAAATTTTCCTAATCTTTCTGTTCAAGCGCCATCTAC” was run?
A: Its binding signal (RPM ratio (pull-down/input)) is 0.583.

Q: With “GATGATTGTTCTCCCAGCTGATGAATTGTGACGATCGAGTAAACAAATTTTCCTAATCTTTCTGTTCAAGCGCCATCTAC” as the sequence, how does the binding signal (RPM ratio (pull-down/input)) read?
A: The binding signal (RPM ratio (pull-down/input)) was 0.494.

Q: How did the binding signal (RPM ratio (pull-down/input)) turn out when “GATGATTGTTCTCCCAGCTGATGAATTCTTCCCGTCGAGTAAACAAATTTTCCTAATCTTTCTGTTCAAGCGCCATCTAC” was run?
A: The binding signal (RPM ratio (pull-down/input)) was 0.162.

Q: For “GATGATTGTTCTCCCAGCTGATGAATTGCAGGCATCGAGTAAACAAATTTTCCTAATCTTTCTGTTCAAGCGCCATCTAC”, which binding signal (RPM ratio (pull-down/input)) is on record?
A: The binding signal (RPM ratio (pull-down/input)) was 1.3.

Q: For “GATGATTGTTCTCCCAGCTGATGAATTGGCTATTTCGAGTAAACAAATTTTCCTAATCTTTCTGTTCAAGCGCCATCTAC”, which binding signal (RPM ratio (pull-down/input)) is on record?
A: The binding signal (RPM ratio (pull-down/input)) was 1.27.

Q: How did the binding signal (RPM ratio (pull-down/input)) turn out when “GATGATTGTTCTCCCAGCTGATGAATTTTGAGCTTCGAGTAAACAAATTTTCCTAATCTTTCTGTTCAAGCGCCATCTAC” was run?
A: Its binding signal (RPM ratio (pull-down/input)) is 0.336.

Q: For “GATGATTGTTCTCCCAGCTGATGAATTCGACGCTTCGAGTAAACAAATTTTCCTAATCTTTCTGTTCAAGCGCCATCTAC”, which binding signal (RPM ratio (pull-down/input)) is on record?
A: The binding signal (RPM ratio (pull-down/input)) was 0.536.
